{"source": "patent US9975852B2", "about": "“Quinoline sulfonyl derivatives and uses thereof” (Health Sciences North Research Institute, priority 2013, dated 2018)", "key": {"MDA-MB231": {"tested_on": "MDA-MB231", "assay": "SRB antiproliferative assay, MDA-MB231", "format": "cell-based", "settings": "Homo sapiens", "description": "(§1) Antiproliferative effects were determined by a sulforhodamine B (SRB) based protocol. For a typical screening experiment, 5,000-10,000 cells were inoculated into 100 μl medium per well of a 96-well microtiter plate as described previously. […] Some of the sample wells were fixed with 25 μl of 50% trichloroacetic acid (TCA) as a control of the cell population for each cell line at the time of drug addition (Tz). An aliquot of the frozen stock was thawed and diluted to the desired final maximum test-concentration with complete medium. Two to ten-fold serial dilutions were made to provide a total of seven drug concentrations (and a control [C]). Following addition of drugs, the culture plate was incubated for additional 48 h. Cells were fixed in situ by slowly adding 25 μl of ice-cold 50% (w/v) TCA (final concentration, 10% TCA), and were then incubated for 60 min at 4° C. […] The relative growth rate (%) was calculated for each of the compound concentrations according to the following formula: (Ti−Tz)/(C−Tz)×100 In the formula, time zero (Tz), control growth (C), and OD for different concentration of tested compounds (Ti). […] Values were calculated for each of these parameters if the level of activity was reached. However, if the effect was not reached or was exceeded, the value for that parameter was expressed as greater or less than the maximum or minimum concentration tested. […]"}, "MCF10A": {"tested_on": "MCF10A", "assay": "SRB antiproliferative assay, MCF10A non-cancer breast cells", "format": "cell-based", "settings": "Homo sapiens, MCF-10A", "description": "as §1"}, "U87MG brain cancer cells": {"tested_on": "U87MG brain cancer cells", "assay": "Clonogenic assay, U87MG brain cancer cells", "format": "cell-based", "description": "(§2) The clonogenic assay was carried out as described in Santi and Lee (2011).^11"}, "MCF10A non-cancer cells [1]": {"tested_on": "MCF10A non-cancer cells", "description": "as §2"}, "[2]": {"tested_on": "breast cancer cell lines vs matching non-cancer breast epithelial cell lines", "assay": "Cancer versus non-cancer selectivity, in vitro breast model", "format": "cell-based, human", "description": "Antiproliferative effects were determined by a sulforhodamine B (SRB) based protocol. For a typical screening experiment, 5,000-10,000 cells were inoculated into 100 μl medium per well of a 96-well microtiter plate as described previously. Briefly, after the inoculation, the microtiter plate was incubated at 37° C., 5% CO2, 95% air and 100% relative humidity for 24 h, prior to addition of experimental drugs. Some of the sample wells were fixed with 25 μl of 50% trichloroacetic acid (TCA) as a control of the cell population for each cell line at the time of drug addition (Tz). An aliquot of the frozen stock was thawed and diluted to the desired final maximum test-concentration with complete medium. Two to ten-fold serial dilutions were made to provide a total of seven drug concentrations (and a control [C]). Following addition of drugs, the culture plate was incubated for additional 48 h. Cells were fixed in situ by slowly adding 25 μl of ice-cold 50% (w/v) TCA (final concentration, 10% TCA), and were then incubated for 60 min at 4° C. The supernatant was discarded, and the plate was washed five times with tap water, followed by air-dry. […] The cells “stained” with SRB were solubilized with 10 mM trizma base, and the absorbance was read on an automated plate reader at a wavelength of 515-564 nm. The relative growth rate (%) was calculated for each of the compound concentrations according to the following formula: (Ti−Tz)/(C−Tz)×100 In the formula, time zero (Tz), control growth (C), and OD for different concentration of tested compounds (Ti). […] Values were calculated for each of these parameters if the level of activity was reached. However, if the effect was not reached or was exceeded, the value for that parameter was expressed as greater or less than the maximum or minimum concentration tested. […]\nAntiproliferative activity of VR-23 was evaluated on a variety of different cell lines, alone or in combination with Bortezomib, by way of SRBSRB or clonogenic assays. […]"}, "[3]": {"tested_on": "proteasome activity in 184B5 non-cancer cells", "assay": "Proteasome activity in 184B5 non-cancer cells", "format": "cell-based, human", "settings": "1 μM VR-23; compared to MCF7 cancer cells", "description": "Exponentially growing HeLa S3 cells were plated on 96-well plates. After overnight incubation, the cells were treated with different concentrations of drugs for 6 hours or left untreated (control). At the end of 6 hours, proteasomes were extracted in 0.5% NP40 buffer, and equal amounts of samples were incubated with 25 μM of fluorogenic substrates purchased from Boston Biochem (Cambridge Mass.). (LRR-specific for trypsin-like activity, LLE-specific for caspase-like activity and SUVY-specific for chymotrypsin like activity) in black-bottom 96-well plates at 37° C. Fluorescence was monitored every 5 min at the wavelength of 360 nm (excitation) and 480 nm (emission). Chymotrypsin activity was also determined by a kit-based method (similar to described above) purchased from Caymen Biochem (Ann Arbor, Mich.), using a fluorogenic substrate specific for chymotrypsin activity."}, "MCF7 cells": {"tested_on": "MCF7 cells", "assay": "Microscopy of microtubule organization, MCF7 cells", "format": "cell-based, human", "settings": "VR-23 10 μM, asynchronous MCF7", "text": "All immunocytochemistry experiments were visualized by confocal microscopy using a Zeiss 510 Meta laser scanning microscope (Carl Zeiss) equipped with a 63× objective lens, unless otherwise specified herein. Three lasers were utilized for excitation with the following band pass filter settings used for detection: Argon 488 nm (band pass 505-530), HeNe 543 nm (long pass 560) and 633 nm (long pass 650). All images were captured and analyzed using LSM 510 software included with the microscope (LSM Image Examiner™, Carl Zeiss).\nMCF7 cells treated with VR-23 contained multiple microtubule organization centers (FIG. 6). Asynchronous MCF7 cells were incubated in the absence (Sham control) or presence of VR-23 (10 μM)."}, "HeLa S3 cells": {"tested_on": "HeLa S3 cells", "assay": "Flow cytometry, cell death and cell cycle of synchronized HeLa S3 cells", "format": "cell-based", "description": "The synchronization at the G1/S border (more accurately at the beginning of S phase) was achieved by double thymidine block (DT). Briefly, exponentially growing cells are treated with 2.0 mM thymidine for 18 hours, followed by incubation for 11 hours in drug-free complete medium, by which time most cells are at mid-late G1 phase. The cells are then incubated for another 14 hours in 2.0 mM thymidine to arrest them at the G1/S border. To arrest cells at the G2/M phase, cells were maintained for 18 hours in complete medium containing nocodazole (50 ng/ml). Both these synchronization are reversible.\nUnder the experimental conditions, some of the cells were still stuck at G2/M until 8 hour post-drug treatment. “Asynchr” denotes asynchronous cells. 0 hour is the end of nocodazole treatment (i.e., 18 hours in 50 ng/ml nocodazole). At 0 hour, cells were released into complete medium in the absence (control) or presence of 5 μM VR-23 for 2, 4, or 8 hours as indicated. […] Extracts prepared from HeLa S3 cells treated with VR-23 in early-S phase (0 hour post double thymidine treatment), G2/M (arrested by nocodazole), or late G1 (6 hour post nocodazole) were subjected to Western blotting with anti-PARP1 antibody to detect proteins associated with apoptotic activities.\nEvaluation of apoptosis in VR-23 treated and untreated control cells (FIG. 8). Treatment of cells in late G1 with VR-23 delayed their progression into S phase. HeLa S3 cells arrested in G2-M phase by nocodazole (50 ng/ml, 18 hours) were incubated in drug-free complete medium for 2, 4 or 6 hours (numbers in brackets), followed by incubation for 2 or 6 hours (+h) in the absence (control) (FIG. 8A) or presence (FIG. 8B) of 10 μM VR-23. […] By (6)+6 hours, most of the control cells already progressed into S phase, but VR-23-treated cells were still in G1 (long and short arrows, respectively). […] Under normal growth conditions, cyclin E expression peaks in late G1 and rapidly levels off as a cell enters S phase, at which time cyclin A expression rapidly increases. […]"}, "MCF10A non-cancer cells [4]": {"tested_on": "MCF10A non-cancer cells", "settings": "8 μM VR-23"}, "[5]": {"assay": "Serum ALT liver toxicity, CD-1 mice"}, "[6]": {"settings": "ratio cancer vs non-cancer line"}}, "note": "Read-outs that look alike come from different tables or passages of the source."}
{"smiles": "O=[N+]([O-])c1ccc(S(=O)(=O)N2CCN(c3ccnc4cc(Cl)ccc34)CC2)c([N+](=O)[O-])c1", "note": "[Compound 1, 7-Chloro-4-(4-(2,4-dinitrophenylsulfonyl)piperazin-1-yl)quinoline]", "values": [{"measurement": "IC50", "setting": "MDA-MB231; MDA-MB-231", "value": "3.4 ± 0.1", "unit": "µM"}, {"measurement": "GI50", "setting": "MDA-MB231; MDA-MB-231, 48 h", "value": "3.41 ± 0.1", "unit": "µM"}, {"measurement": "IC50", "setting": "MCF10A", "value": "12.3 ± 1", "unit": "µM"}, {"measurement": "IC50", "setting": "U87MG brain cancer cells; Homo sapiens, U-87 MG, read-out: IC50 U87MG", "value": "0.7 ± 0.5", "unit": "µM"}, {"measurement": "# Colonies (Experiment #1)", "setting": "U87MG brain cancer cells; VR-23, 0.5 μM", "value": 0}, {"measurement": "# Colonies (Experiment #1)", "setting": "U87MG brain cancer cells; VR-23, 2.5 μM", "value": 0}, {"measurement": "# Colonies (Experiment #2)", "setting": "U87MG brain cancer cells; VR-23, 2.5 μM", "value": 0}, {"measurement": "Effectiveness relative to temozolomide on U87MG brain cancer cells", "setting": "U87MG brain cancer cells; in vitro", "value": "at least 20 times"}, {"measurement": "Colony counts", "setting": "MCF10A non-cancer cells [1]; 0.5-8.0 μM VR-23, 14 days", "value": "colony counts were not substantially different"}, {"measurement": "Toxicity to MCF10A non-cancer cells", "setting": "MCF10A non-cancer cells [1]; up to 8 μM", "value": "not notably toxic"}, {"measurement": "Killing of cancer cells more effectively than matching non-cancer cells", "setting": "[2]; in vitro breast (cancer) model", "value": "2.6-17.6 fold"}, {"measurement": "Inhibitory effect, MDA-MB231 vs 184B5", "setting": "[2]; [6]", "value": 2.6, "unit": "times"}, {"measurement": "Inhibitory effect, MDA-MB468 vs MCF10A", "setting": "[2]; [6]", "value": 17.6, "unit": "times"}, {"measurement": "Proteasome inhibition in 184B5 cells", "setting": "[3]", "value": "not pronounced"}, {"measurement": "Cells with multiple microtubule organization centers", "setting": "MCF7 cells", "value": "~33", "unit": "%"}, {"measurement": "Cell death of cells arrested at G2-M by nocodazole", "setting": "HeLa S3 cells; 5 μM VR-23, within 4 hours", "value": "caused massive cell death"}, {"measurement": "Cell cycle progression from late G1 to S phase", "setting": "HeLa S3 cells; 10 μM VR-23, (6)+6 hours post nocodazole", "value": "slowed down cell cycle progression from late G1 to S phase"}, {"measurement": "Cells in G1", "setting": "HeLa S3 cells; 10 μM VR-23 for 6 hours from 6 hours post-DT", "value": "~30", "unit": "%"}, {"measurement": "Apoptosis in MCF10A", "setting": "MCF10A non-cancer cells [4]", "value": "did not induce any apoptosis"}, {"measurement": "ALT", "setting": "ATH490 mice", "value": "46.63 ± 6.16", "unit": "U/L"}, {"measurement": "AST", "setting": "ATH490 mice", "value": "62.52 ± 8.50", "unit": "U/L"}, {"measurement": "Liver toxicity by ratio of ALT and AST", "setting": "ATH490 mice, 30 mg/kg", "value": "did not cause any significant liver toxicity"}, {"measurement": "Ratio (AST/ALT)", "setting": "mouse, in vivo", "value": 1.34}, {"measurement": "ALT", "setting": "[5]; 1 mg/kg", "value": "6.40 ± 1.82", "unit": "IU/L blood"}, {"measurement": "ALT", "setting": "[5]; 5 mg/kg", "value": "6.81 ± 0.32", "unit": "IU/L blood"}, {"measurement": "ALT", "setting": "[5]; 20 mg/kg", "value": "16.19 ± 4.79", "unit": "IU/L blood"}, {"measurement": "Liver toxicity by level of serum ALT", "setting": "[5]; up to 20 mg/kg", "value": "did not cause any significant liver toxicity"}]}
